# Data published in PubChem BioAssay AID686979 (National Center for Advancing Translational Sciences (NCATS), 2013).
# Screen size: about 420,000 compounds; about 50,000 (12%) were called active. Inconclusive results, whose numbers are uncertain, are shown with a selection of clear calls. Calls come from the whole dose curve; as a rule, active = well fitted inhibition curve with a large enough effect; inconclusive = small, poorly fitted or top-dose-only effect; inactive = flat fitted curve, though single readings scatter. Potencies of inconclusive entries are left out as doubtful fits.
# Test: qHTS for Inhibitors of human tyrosyl-DNA phosphodiesterase 1 (TDP1): qHTS in cells in presence of CPT; note: nearly all actives have a fitted effect of over 55% in size
# Conditions: chicken DT40 Tdp1-/-;hTDP1 cells + 20 nM CPT, ATP luminescence, 48 h; activity change, negative = growth inhibition: at 46.2 µM (top of the series)
# Procedure, shortened: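 Chicken DT40 Tdp1-/- cells stably complemented with human TDP1 were seeded at 400 cells/well in medium containing 20 nM camptothecin, exposed to pin-transferred compounds, and grown at 37 °C for at least 48 hr. Viability was read as ATP luminescence.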
# % is set by controls: 0 for no effect and ±100 for the full control effect; potency is the fitted concentration of half-maximal effect; tags give direction and shape of the fitted curve.
Compound,Potency,"activity change, negative = growth inhibition"
O=C(CCNC(=O)c1ccc([N+](=O)[O-])cc1)NNC(=O)c1ccccc1F,inactive,
COc1ccc(CCNc2nc3ccc(C)cc3n3cnnc23)cc1OC,active: 14.6 µM,
O=C(c1cccn1-c1nnc(N2CCCCC2)s1)N1CCN(c2ccc(Cl)cc2)CC1,"inconclusive [inhibitor, single point]",
COc1cc(OC)cc(-c2c(-c3ccc(F)cc3)c3cc(-c4ccc(OC)nc4)ccc3n2C)c1,"inconclusive [inhibitor, single point]",
COc1ccc(CSc2n[nH]c(=O)[nH]c2=O)cc1,inactive,
Nc1cc(-c2ccc(OC(F)(F)F)cc2)nn1-c1ccc(Cl)c(Cl)c1,"inconclusive [inhibitor, single point]",
COc1ccc(C2=NOC(C)(c3nnc(-c4ccc(F)cc4)o3)C2)cc1 (stereo not drawn),inactive,
COc1ccc(-n2c(C)c(C(C)=O)c3cc(OCC(N)=O)ccc32)cc1,"inconclusive [inhibitor, single point]",
Cc1cc(C)cc(NC(=O)C(CC(C)C)NC(=O)C2CCCCC2)c1 (stereo not drawn),"inconclusive [inhibitor, single point]",
CN(C)c1ccc(C(=O)Nc2c(C(=O)NC(C)(C)C)oc3ccccc23)cc1,"inconclusive [inhibitor, single point]",
CC(C)Oc1ccc(CNC(=O)c2ccc3nc(C(C)C)oc3c2)cc1,inactive,
OC(COc1ccc(CN2CCSCC2)cc1)CN1CCCCC1 (stereo not drawn),"inconclusive [inhibitor, single point]",
CC1=CN(S(=O)(=O)c2ccc(C)cc2)C[C@@H]2[C@H]3CC[C@H](C3)[C@H]12,,inconclusive: -33.9% [inhibitor]
Cc1ccc(S(=O)(=O)N2C[C@H]3n4c(=O)ccc(=O)n4C[C@H](OC(=O)Nc4cccs4)[C@@]3(O)C2)cc1,"inconclusive [inhibitor, single point]",
Cc1ccn2cc(-c3cccc(NC(=O)CCC(=O)O)c3)nc2c1,"inconclusive [inhibitor, single point]",
Cc1occc1-c1nnc(SCC(=O)Nc2ccccc2)n1C(C)c1ccccc1 (stereo not drawn),"inconclusive [inhibitor, single point]",
CCc1c(C)nc2ncnn2c1N1CCCC(C(=O)NCc2ccc3c(c2)OCO3)C1 (stereo not drawn),"inconclusive [inhibitor, single point]",
CC(O)(c1cccc(F)c1)c1nc(-c2cccc3cccnc23)cs1 (stereo not drawn),"inconclusive [inhibitor, single point]",
COc1ccc(S(=O)(=O)N(CC(=O)Nc2cc(C)cc(C)c2)c2ccc(Cl)cc2)cc1,"inconclusive [inhibitor, single point]",
COC(=O)c1c(C)[nH]c(C)c1-c1ccc(C)cc1,inactive,
Cc1ccccc1CC(=O)N1CCCC(CCC(=O)N2CCN(c3ccccn3)CC2)C1 (stereo not drawn),"inconclusive [inhibitor, single point]",
C/C=C/c1cnc2c(c1)C(=O)N([C@@H](C)CO)C[C@H](C)[C@@H](CN(C)S(=O)(=O)c1ccc(C)cc1)O2,active: 23.1 µM,

Compound,Potency,"activity change, negative = growth inhibition"
Cc1cccc(C)c1OC1(c2ccccc2)OC(=O)c2ccccc21 (stereo not drawn),"inconclusive [inhibitor, single point]",
O=C(NCCn1cc(SCc2ccccc2)c2ccccc21)c1cccs1,active: 14.6 µM,
NS(=O)(=O)c1ccc(CCNCc2cc(Br)ccc2OCc2ccccc2)cc1,active: 14.6 µM,
COc1ccc(C(=O)CC(=O)C(=O)Nc2ccc(Cl)cc2)cc1,"inconclusive [inhibitor, single point]",
O=C1CCCN1c1ccc(S(=O)(=O)Oc2cccc(Cl)c2)cc1[N+](=O)[O-],"inconclusive [inhibitor, partial curve]",
COc1cc2c(cc1OC)[C@@H](c1ccccc1)CN(C)CC2,inactive,
CCCC(NCC(O)COc1ccc(-c2ccccc2)cc1)c1ccccc1 (stereo not drawn),active: 7.31 µM,
Cc1ccc(C)c(NC(=S)NNC(=O)c2csc(C)c2C)c1,"inconclusive [inhibitor, partial curve]",
COc1ccc(/C(C)=N/NC(=O)CNC(=O)C(c2ccccc2)c2ccccc2)c(OC)c1,"inconclusive [inhibitor, single point]",
CC(=O)c1cccc(NC(=O)c2ccc(Cl)c(S(=O)(=O)N3CCOCC3)c2)c1,"inconclusive [inhibitor, single point]",
O=C(CSc1nnc(-c2cccc(S(=O)(=O)N3CCCCC3)c2)o1)c1ccc[nH]1,"inconclusive [inhibitor, single point]",
COCCN1Cc2cccc(C(=O)Nc3ccc4c(c3)OCCO4)c2C1=O,"inconclusive [inhibitor, partial curve]",
COC1=CC(=O)OC(c2cccc(C#N)c2)C1 (stereo not drawn),inactive,
COc1ccc(C2=NS(=O)(=O)N(C)C(C(=O)NCc3ccc(F)cc3)=C2)cc1OC,"inconclusive [inhibitor, single point]",
CC(=O)c1c(C)n(-c2ccc(Cl)cc2)c2ccc(OC(=O)COc3ccccc3)cc12,inactive,
O=CNc1ccc2c3c(cccc13)-c1ccccc1-2,"inconclusive [inhibitor, single point]",
C[C@@H]1CN([C@H](C)CO)C(=O)CCCn2cc(nn2)CO[C@H]1CN(C)C(=O)Nc1ccc2c(c1)OCCO2,inactive,
COc1ccc(C(=O)N/C(=C\c2ccc(-c3cccc([N+](=O)[O-])c3)o2)C(=O)NCCCN2CCOCC2)cc1,"inconclusive [inhibitor, single point]",
COc1ccccc1NC(=O)CSC1=NC(=O)C(Cc2ccccc2)C(=O)N1 (stereo not drawn),inactive,
O=C(c1c(F)cccc1Cl)N1CCN(S(=O)(=O)c2ccc3c(c2)OCCCO3)CC1,"inconclusive [inhibitor, single point]",
COc1ccc(-c2nc3ccc(Cl)cn3c2CC(C)(C)C)cc1OC,"inconclusive [inhibitor, single point]",
